# According to patent US20220267464A1 (Hoffmann-La Roche, published 2022):
# Read-outs that look alike come from different tables or passages of the source.
# B1: CEA(P001.177)-4-1BBL (Fc fusion)
# chain 1: REGPELSPDDPAGLLDLRQGMFAQLVAQNVLLIDGPLSWYSDPGLAGVSLTGGLSYKEDTKELVVAKAGVYYVFFQLELRRVVAGEGSGSVSLALHLQPLRSAAGAAALALTVDLPPASSEARNSAFGFQGRLLHLSAGQRLGVHLHTEARARHAWQLTQGATVLGLFRVTPEIPAGLGGGGSGGGGSREGPELSPDDPAGLLDLRQGMFAQLVAQNVLLIDGPLSWYSDPGLAGVSLTGGLSYKEDTKELVVAKAGVYYVFFQLELRRVVAGEGSGSVSLALHLQPLRSAAGAAALALTVDLPPASSEARNSAFGFQGRLLHLSAGQRLGVHLHTEARARHAWQLTQGATVLGLFRVTPEIPAGLGGGGSGGGGSRTVAAPSVFIFPPSDRKLKSGTASVVCLLNNFYPREAKVQWKVDNALQSGNSQESVTEQDSKDSTYSLSSTLTLSKADYEKHKVYACEVTHQGLSSPVTKSFNRGE[human IgG1 Fc with changes not spelt out]
# chain 2: REGPELSPDDPAGLLDLRQGMFAQLVAQNVLLIDGPLSWYSDPGLAGVSLTGGLSYKEDTKELVVAKAGVYYVFFQLELRRVVAGEGSGSVSLALHLQPLRSAAGAAALALTVDLPPASSEARNSAFGFQGRLLHLSAGQRLGVHLHTEARARHAWQLTQGATVLGLFRVTPEIPAGLGGGGSGGGGSASTKGPSVFPLAPSSKSTSGGTAALGCLVEDYFPEPVTVSWNSGALTSGVHTFPAVLQSSGLYSLSSVVTVPSSSLGTQTYICNVNHKPSNTKVDEKVEPKSC
# heavy: EVQLLESGGGLVQPGGSLRLSCAASGFYFTDYYMNWVRQAPGKGLEWLGFISNKANAYTTEYSASVKGRFTISRDKSKNTLYLQMNSLRAEDTATYYCTRDRGLRFYFDYWGQGTTVTVSSASTKGPSVFPLAPSSKSTSGGTAALGCLVKDYFPEPVTVSWNSGALTSGVHTFPAVLQSSGLYSLSSVVTVPSSSLGTQTYICNVNHKPSNTKVDKKVEPKSCDKTHTCPPCPAPEAAGGPSVFLFPPKPKDTLMISRTPEVTCVVVDVSHEDPEVKFNWYVDGVEVHNAKTKPREEQYNSTYRVVSVLTVLHQDWLNGKEYKCKVSNKALGAPIEKTISKAKGQPREPQVCTLPPSRDELTKNQVSLSCAVKGFYPSDIAVEWESNGQPENNYKTTPPVLDSDGSFFLVSKLTVDKSRWQQGNVFSCSVMHEALHNHYTQKSLSLSP
# light: EIVLTQSPATLSLSPGERATLSCRASSSVTYIHWYQQKPGQAPRSWIYATSNLASGIPARFSGSGSGTDFTLTISSLEPEDFAVYYCQHWSSKPPTFGQGTKLEIKRTVAAPSVFIFPPSDEQLKSGTASVVCLLNNFYPREAKVQWKVDNALQSGNSQESVTEQDSKDSTYSLSSTLTLSKADYEKHKVYACEVTHQGLSSPVTKSFNRGEC
# notes: split trimeric 4-1BBL Fc (kih) P329G LALA with one anti-CEA Fab; also called CEA (aff. mat. A5H1EL1D P001.177)-4-1BBL; printed once as P001.117
# B2: CEA(MFE23)-4-1BBL (Fc fusion)
# chain 1: REGPELSPDDPAGLLDLRQGMFAQLVAQNVLLIDGPLSWYSDPGLAGVSLTGGLSYKEDTKELVVAKAGVYYVFFQLELRRVVAGEGSGSVSLALHLQPLRSAAGAAALALTVDLPPASSEARNSAFGFQGRLLHLSAGQRLGVHLHTEARARHAWQLTQGATVLGLFRVTPEIPAGLGGGGSGGGGSREGPELSPDDPAGLLDLRQGMFAQLVAQNVLLIDGPLSWYSDPGLAGVSLTGGLSYKEDTKELVVAKAGVYYVFFQLELRRVVAGEGSGSVSLALHLQPLRSAAGAAALALTVDLPPASSEARNSAFGFQGRLLHLSAGQRLGVHLHTEARARHAWQLTQGATVLGLFRVTPEIPAGLGGGGSGGGGSRTVAAPSVFIFPPSDRKLKSGTASVVCLLNNFYPREAKVQWKVDNALQSGNSQESVTEQDSKDSTYSLSSTLTLSKADYEKHKVYACEVTHQGLSSPVTKSFNRGE[human IgG1 Fc with changes not spelt out]
# chain 2: B1 chain 2
# heavy: QVKLQQSGAELVRSGTSVKLSCTASGFNIKDSYMHWLRQGPEQGLEWIGWIDPENGDTEYAPKFQGKATFTTDTSSNTAYLQLSSLTSEDTAVYYCNEGTPTGPYYFDYWGQGTTVTVSSASTKGPSVFPLAPSSKSTSGGTAALGCLVKDYFPEPVTVSWNSGALTSGVHTFPAVLQSSGLYSLSSVVTVPSSSLGTQTYICNVNHKPSNTKVDKKVEPKSCDKTHTCPPCPAPEAAGGPSVFLFPPKPKDTLMISRTPEVTCVVVDVSHEDPEVKFNWYVDGVEVHNAKTKPREEQYNSTYRVVSVLTVLHQDWLNGKEYKCKVSNKALGAPIEKTISKAKGQPREPQVCTLPPSRDELTKNQVSLSCAVKGFYPSDIAVEWESNGQPENNYKTTPPVLDSDGSFFLVSKLTVDKSRWQQGNVFSCSVMHEALHNHYTQKSLSLSP
# light: ENVLTQSPAIMSASPGEKVTITCSASSSVSYMHWFQQKPGTSPKLWIYSTSNLASGVPARFSGSGSGTSYSLTISRMEAEDAATYYCQQRSSYPLTFGAGTKLELKRTVAAPSVFIFPPSDEQLKSGTASVVCLLNNFYPREAKVQWKVDNALQSGNSQESVTEQDSKDSTYSLSSTLTLSKADYEKHKVYACEVTHQGLSSPVTKSFNRGEC
# notes: split trimeric 4-1BBL Fc (kih) P329G LALA with one anti-CEA Fab
# Tests used:
# [1] = target: T1, human CEACAM5 (carcinoembryonic antigen, CEA) on cells (human, UniProt P06731 35-685); experiment: cell-based or functional assay
# T1 sequence: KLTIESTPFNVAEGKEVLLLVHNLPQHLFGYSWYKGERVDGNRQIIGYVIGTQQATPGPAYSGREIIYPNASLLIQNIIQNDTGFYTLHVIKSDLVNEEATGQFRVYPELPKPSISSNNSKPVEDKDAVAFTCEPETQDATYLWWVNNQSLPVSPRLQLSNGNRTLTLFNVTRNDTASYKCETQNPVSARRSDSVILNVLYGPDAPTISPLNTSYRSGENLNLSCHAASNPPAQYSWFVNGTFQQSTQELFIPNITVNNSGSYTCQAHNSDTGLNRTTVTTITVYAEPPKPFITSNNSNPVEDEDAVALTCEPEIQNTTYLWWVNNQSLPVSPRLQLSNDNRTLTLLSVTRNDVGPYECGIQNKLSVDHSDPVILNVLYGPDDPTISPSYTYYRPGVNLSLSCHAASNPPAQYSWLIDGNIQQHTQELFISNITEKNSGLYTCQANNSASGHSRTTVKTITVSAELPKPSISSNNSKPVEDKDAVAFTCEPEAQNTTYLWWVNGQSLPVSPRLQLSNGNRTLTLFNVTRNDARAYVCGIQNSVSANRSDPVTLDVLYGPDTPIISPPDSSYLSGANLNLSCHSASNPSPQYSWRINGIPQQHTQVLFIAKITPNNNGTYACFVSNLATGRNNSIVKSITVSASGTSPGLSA
# [2] = target: T2, cynomolgus monkey CEACAM5 on CHO-k1-cynoCEACAM5 clone 8 cells (cynomolgus monkey); experiment: cell-based or functional assay
# [3] = target: T1, human CEACAM5 (carcinoembryonic …); experiment: cell-based or functional assay; design: AUC of activation curve, Jurkat-hu4-1BB-NFκB-luc2, no CEA+ cells / AUC of activation curve, Jurkat-hu4-1BB-NFκB-luc2 with CHO-k1-cyno CEACAM5 clone 8: unit not given beside the values
# [4] = target: T2, cynomolgus monkey CEACAM5 on …; experiment: cell-based or functional assay; design: AUC of activation curve, Jurkat-hu4-1BB-NFκB-luc2, no CEA+ cells / AUC of activation curve, Jurkat-hu4-1BB-NFκB-luc2 with CHO-k1-cyno CEACAM5 clone 8: unit not given beside the values
# [5] = target: human 4-1BB on Jurkat-hu4-1BB-NFκB-luc2 reporter cells (human, UniProt Q07011 24-255); experiment: cell-based or functional assay; design: AUC of activation curve, Jurkat-hu4-1BB-NFκB-luc2, no CEA+ cells / AUC of activation curve, Jurkat-hu4-1BB-NFκB-luc2 with CHO-k1-cyno CEACAM5 clone 8: unit not given beside the values
# Sequence of UniProt Q07011 (Q07011 24-255 limits assumed): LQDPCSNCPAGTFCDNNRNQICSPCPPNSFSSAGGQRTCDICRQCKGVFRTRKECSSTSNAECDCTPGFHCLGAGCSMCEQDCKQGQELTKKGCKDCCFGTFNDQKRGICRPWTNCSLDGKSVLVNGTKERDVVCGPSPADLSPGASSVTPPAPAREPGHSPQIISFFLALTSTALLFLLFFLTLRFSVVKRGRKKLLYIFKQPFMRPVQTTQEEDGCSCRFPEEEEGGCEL
# [6] = target: T1, human CEACAM5 (carcinoembryonic …); experiment: flow cytometry, CHO-k1-huCEACAM5 clone 11
# [7] = target: T1, human CEACAM5 (carcinoembryonic …); experiment: flow cytometry, CHO-k1-huCEACAM5 clone 12
# [8] = target: T1, human CEACAM5 (carcinoembryonic …); experiment: flow cytometry, CHO-k1-huCEACAM5 clone 11; design: unit not given beside the values
# [9] = target: T1, human CEACAM5 (carcinoembryonic …); experiment: flow cytometry, CHO-k1-huCEACAM5 clone 12; design: unit not given beside the values
# [10] = target: T2, cynomolgus monkey CEACAM5 on …; experiment: flow cytometry, CHO-k1-cynoCEACAM5 clone 8; design: unit not given beside the values
# hu N(A2-B2)A-avi-His = target: T3, hu N(A2-B2)A-avi-His (human, biotin on the avi tag where used biotinylated); experiment: SPR (Biacore T200), huN(A2-B2)A immobilised on a CM5 chip, construct injected as analyte 1
# T3 construct: chimeric soluble antigen; also called hu N(A2-B2)A-avi-His B; human CEA (A2 domain)
# T3 chain: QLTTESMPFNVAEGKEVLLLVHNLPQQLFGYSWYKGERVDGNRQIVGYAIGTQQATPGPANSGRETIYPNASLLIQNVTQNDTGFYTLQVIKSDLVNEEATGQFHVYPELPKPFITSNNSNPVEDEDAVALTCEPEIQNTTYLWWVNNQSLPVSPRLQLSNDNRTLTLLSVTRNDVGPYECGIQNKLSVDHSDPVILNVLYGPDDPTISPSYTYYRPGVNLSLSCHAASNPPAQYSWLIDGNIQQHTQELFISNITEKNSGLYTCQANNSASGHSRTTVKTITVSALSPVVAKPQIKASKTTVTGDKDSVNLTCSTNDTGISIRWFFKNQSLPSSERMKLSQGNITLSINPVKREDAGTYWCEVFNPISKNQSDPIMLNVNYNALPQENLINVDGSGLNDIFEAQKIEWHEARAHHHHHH
# Protocol: All SPR experiments were performed on a Biacore T200 at 25° C. with HBS-EP as running buffer (0.01 M HEPES pH 7.4, 0.15 M NaCl, 3 mM EDTA, 0.005% Surfactant P20, Biacore, Freiburg/Germany).
# Bulk refractive index differences were corrected for by subtracting the response obtained in a reference flow cell, where no protein was immobilized.
# [11] = target: T1, human CEACAM5 (carcinoembryonic …); experiment: flow cytometry, CHO-k1-huCEACAM5 clone 11; remark: listed apart in the source
# [12] = target: T1, human CEACAM5 (carcinoembryonic …); experiment: flow cytometry, CHO-k1-huCEACAM5 clone 12; remark: listed apart in the source
# [13] = target: T1, human CEACAM5 (carcinoembryonic …); experiment: flow cytometry, CHO-k1-huCEACAM5 clone 13
# [14] = target: T1, human CEACAM5 (carcinoembryonic …); experiment: flow cytometry, CHO-k1-huCEACAM5 clone 17
# [15] = target: T1, human CEACAM5 (carcinoembryonic …); experiment: flow cytometry, CHO-k1-huCEACAM5 clone 11; design: unit not given beside the values; remark: listed apart in the source
# [16] = target: T1, human CEACAM5 (carcinoembryonic …); experiment: flow cytometry, CHO-k1-huCEACAM5 clone 12; design: unit not given beside the values; remark: listed apart in the source
# [17] = target: T1, human CEACAM5 (carcinoembryonic …); experiment: flow cytometry, CHO-k1-huCEACAM5 clone 13; design: unit not given beside the values
# [18] = target: T1, human CEACAM5 (carcinoembryonic …); experiment: flow cytometry, CHO-k1-huCEACAM5 clone 17; design: unit not given beside the values
# [19] = target: T2, cynomolgus monkey CEACAM5 on …; experiment: flow cytometry, CHO-k1-cynoCEACAM5 clone 8; design: unit not given beside the values; remark: listed apart in the source
binder,measurement,setting,value
B1,"EC50, NFκB-luciferase in Jurkat-hu4-1BB-NFκB-luc2 with CHO-k1-human CEACAM5 clone 11",[1],50 pM
same,"EC50, NFκB-luciferase in Jurkat-hu4-1BB-NFκB-luc2 with CHO-k1-human CEACAM5 clone 12",[1],30 pM
same,"EC50, NFκB-luciferase in Jurkat-hu4-1BB-NFκB-luc2 with CHO-k1-cyno CEACAM5 clone 8",[2],130 pM
same,"AUC of activation curve, Jurkat-hu4-1BB-NFκB-luc2 with CHO-k1-human CEACAM5 clone 11",[3],174000
same,"AUC of activation curve, Jurkat-hu4-1BB-NFκB-luc2 with CHO-k1-human CEACAM5 clone 12",[3],171000
same,"AUC of activation curve, Jurkat-hu4-1BB-NFκB-luc2 with CHO-k1-cyno CEACAM5 clone 8",[4],72100
same,"AUC of activation curve, Jurkat-hu4-1BB-NFκB-luc2, no CEA+ cells",[5],2870
same,EC50,[6],33700 pM
same,EC50,[7],44000 pM
same,AUC,[8],3630
same,AUC,[9],8350
same,AUC,[10],164
same,binding result,hu N(A2-B2)A-avi-His,binds
B2,"EC50, NFκB-luciferase in Jurkat-hu4-1BB-NFκB-luc2 with CHO-k1-human CEACAM5 clone 11",[1],80 pM
same,"EC50, NFκB-luciferase in Jurkat-hu4-1BB-NFκB-luc2 with CHO-k1-human CEACAM5 clone 12",[1],50 pM
same,"AUC of activation curve, Jurkat-hu4-1BB-NFκB-luc2 with CHO-k1-human CEACAM5 clone 11",[3],183000
same,"AUC of activation curve, Jurkat-hu4-1BB-NFκB-luc2 with CHO-k1-human CEACAM5 clone 12",[3],176000
same,"AUC of activation curve, Jurkat-hu4-1BB-NFκB-luc2 with CHO-k1-cyno CEACAM5 clone 8",[4],3940
same,"AUC of activation curve, Jurkat-hu4-1BB-NFκB-luc2, no CEA+ cells",[5],2660
same,EC50,[11],540 pM
same,EC50,[12],2250 pM
same,EC50,[13],5170 pM
same,EC50,[14],600 pM
same,AUC,[15],33200
same,AUC,[16],109000
same,AUC,[17],168000
same,AUC,[18],36300
same,AUC,[19],430
